# This is one part of the list. The data describe in vitro nicking of single-stranded DNA by Rep domains (1 h at 37 °C, 3 µM enzyme); the outer parts of the 90-letter strands are left off. A value is the log2 ratio of uncut reads to the pool without enzyme; the lower, the more was cut; hits are not called. The scaling is to total reads; where an enzyme cuts many sequences, the uncut ones exceed 0.
# Experiments:
# Experiment in all cases: uncleaved DNA left, log2 of reads against the no-enzyme library (log2 ratio); higher = less cleavage (more negative = more Rep cleavage of the k-mer); sequences stand for … in CTCGTCCG…ACCGGAGA
# [1] = system: T1, Rep nickase domain of Muscovy duck circovirus
# T1 sequence (residues 1-111, tag not shown): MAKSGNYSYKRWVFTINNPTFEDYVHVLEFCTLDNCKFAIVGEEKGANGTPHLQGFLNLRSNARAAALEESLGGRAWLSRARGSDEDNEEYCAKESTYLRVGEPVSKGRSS
# Protocol: (§1)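 A pool of 90-nt single-stranded DNAs with seven random bases just before the constant AC of the nick site (name = the seven bases) was cut by 3 µM recombinant His6-SUMO-tagged Rep nickase domain (300 nM DNA, 50 mM HEPES pH 8.0, 50 mM NaCl, 1 mM MnCl2, 1 h, 37 °C, three replicates). Uncut DNA was amplified and sequenced.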
# [2] = system: T2, Rep nickase domain of banana bunchy top virus
# T2 sequence (residues 1-94, tag not shown): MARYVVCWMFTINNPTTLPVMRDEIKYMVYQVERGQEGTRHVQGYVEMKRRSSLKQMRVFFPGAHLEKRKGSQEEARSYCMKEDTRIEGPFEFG
# Protocol: as §1
# [3] = system: T3, Rep nickase domain of cabbage leaf curl virus
# T3 sequence (residues 1-116, tag not shown): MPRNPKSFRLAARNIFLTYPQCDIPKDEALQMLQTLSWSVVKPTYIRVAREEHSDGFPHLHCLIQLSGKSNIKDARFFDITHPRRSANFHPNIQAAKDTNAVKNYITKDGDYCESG
# Protocol: as §1
# [4] = system: T4, Rep nickase domain of chickpea chlorotic dwarf virus
# T4 sequence (residues 1-124, tag not shown): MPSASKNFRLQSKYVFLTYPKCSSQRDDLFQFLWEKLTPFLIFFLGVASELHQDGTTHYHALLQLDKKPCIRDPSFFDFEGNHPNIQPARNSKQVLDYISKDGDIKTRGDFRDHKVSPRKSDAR
# Protocol: as §1
# [5] = system: T5, Rep nickase domain of faba bean necrotic yellows virus
# T5 sequence (residues 1-98, tag not shown): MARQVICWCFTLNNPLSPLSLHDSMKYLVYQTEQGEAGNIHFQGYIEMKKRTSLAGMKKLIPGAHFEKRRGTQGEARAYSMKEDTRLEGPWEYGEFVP
# Protocol: as §1
# [6] = system: T6, Rep nickase domain of maize striate mosaic virus
# T6 sequence (residues 1-117, tag not shown): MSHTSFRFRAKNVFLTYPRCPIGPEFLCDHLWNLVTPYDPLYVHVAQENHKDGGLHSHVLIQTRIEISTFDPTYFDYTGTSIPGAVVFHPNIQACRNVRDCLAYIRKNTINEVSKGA
# Protocol: as §1
# [7] = system: T7, Rep nickase domain of porcine circovirus 2
# T7 sequence (residues 2-116, tag not shown): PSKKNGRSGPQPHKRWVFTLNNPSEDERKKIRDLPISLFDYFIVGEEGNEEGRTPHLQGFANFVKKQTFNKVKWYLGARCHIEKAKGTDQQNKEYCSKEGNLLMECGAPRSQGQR
# Protocol: as §1
# [8] = system: T8, Rep nickase domain of tomato yellow leaf curl virus
# T8 sequence (residues 1-136, tag not shown): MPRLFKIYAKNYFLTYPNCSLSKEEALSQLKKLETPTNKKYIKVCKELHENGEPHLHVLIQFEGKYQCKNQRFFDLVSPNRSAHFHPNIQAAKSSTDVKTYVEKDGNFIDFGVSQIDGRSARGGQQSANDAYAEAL
# Protocol: as §1
# [9] = system: T9, Rep nickase domain of wheat dwarf virus
# T9 sequence (residues 1-137, tag not shown): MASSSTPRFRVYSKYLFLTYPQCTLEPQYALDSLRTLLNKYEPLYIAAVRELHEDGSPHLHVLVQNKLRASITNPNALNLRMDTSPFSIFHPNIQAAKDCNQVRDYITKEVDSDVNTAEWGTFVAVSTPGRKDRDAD
# Protocol: as §1
Sequence,uncleaved DNA left (log2) [1],uncleaved DNA left (log2) [2],uncleaved DNA left (log2) [3],uncleaved DNA left (log2) [4],uncleaved DNA left (log2) [5],uncleaved DNA left (log2) [6],uncleaved DNA left (log2) [7],uncleaved DNA left (log2) [8],uncleaved DNA left (log2) [9]
AACATTT,0.00295,-0.326,-1.03,-2.68,0.0229,-1.09,-3.35,0.0268,-0.0978
CATCTTG,-0.189,-0.212,-0.814,-1.76,-0.221,-1.25,0.072,-0.0966,-0.175
TCTAGCT,0.0228,-0.00911,-0.279,-1.32,-0.0276,-0.92,0.0464,-0.0124,-0.12
TAAAGTT,-0.129,-0.239,-4.29,-3.4,0.0844,-3.04,-2.98,-0.11,-3.79
ATGGCCT,0.167,0.0309,-0.0191,-0.336,0.132,0.468,0.00197,-0.0173,0.0473
TAATCAT,-2.65,-0.0516,-4.25,-3.16,-0.0286,-2.92,-3.54,-0.118,-3.9
TCGGACG,0.0137,0.133,-0.319,-0.311,-0.0755,-0.885,0.0618,0.139,0.0982
CCAGGTC,0.0455,0.0547,0.403,0.657,-0.0994,0.579,-0.051,0.0256,0.0486
TCACATT,0.0673,0.0861,-0.242,-2.34,0.0561,-0.371,-0.0329,0.0238,0.0469
TTAATAG,0.0811,0.0328,-0.617,-0.596,0.15,-1.19,0.182,0.0801,0.0858
CCATAGT,-2.66,-0.112,-0.753,-1.48,-0.0694,-1.28,-3.42,-0.0263,-0.194
ATACATC,0.0854,0.0338,0.0343,-0.33,0.00107,-0.951,0.152,0.0199,0.0175
GAAAATC,0.0409,-0.0146,0.157,0.351,-0.0105,0.636,0.0729,0.0252,0.0578
CAAGAAC,0.0653,0.0352,-0.174,-0.0886,0.0336,-0.713,0.148,0.0373,0.00734
TGCAGTC,-0.0206,-0.0812,-0.0701,-0.124,0.00331,-0.681,0.0449,-0.115,-0.127
TAAGATT,-0.159,-0.265,-4.09,-2.83,-0.0431,-2.13,-1.12,-0.333,-3.74
TGATAAT,-3.58,-0.0612,-0.144,-1.76,-0.1,-0.0524,-3.52,0.0898,-0.445
TATAATT,-2.51,-3.2,-2.64,-3.16,0.14,-0.475,-3.43,-0.0766,-0.466
ACTCTCG,0.0406,-0.101,-0.623,0.159,-0.00446,-0.569,0.115,-0.035,-0.0644
GGTGGAC,-0.0382,0.0111,0.859,1.95,-0.0318,2.26,0.269,0.0518,0.0741

Sequence,uncleaved DNA left (log2) [1],uncleaved DNA left (log2) [2],uncleaved DNA left (log2) [3],uncleaved DNA left (log2) [4],uncleaved DNA left (log2) [5],uncleaved DNA left (log2) [6],uncleaved DNA left (log2) [7],uncleaved DNA left (log2) [8],uncleaved DNA left (log2) [9]
TGCATCC,0.0325,0.0647,0.131,0.278,-0.144,-0.152,0.0494,-0.0171,0.00252
AAACGCC,-0.0703,0.0382,-0.251,-0.806,0.0156,-0.766,-0.0379,-0.0876,-0.104
TGTTCGT,-0.0592,0.0116,-0.226,-0.698,0.0357,-0.971,-0.0937,0.0746,-0.00116
GCACGAG,-0.0406,0.0909,0.32,1.03,0.0243,-0.00744,0.361,0.161,0.149
GCTTGAC,-0.0242,-0.0527,0.123,0.0933,0.0556,0.362,0.0153,-0.104,-0.0772
GAGGTTT,-0.0467,0.0692,0.379,-0.318,-0.067,1.68,-2.09,0.0426,0.0174
TTATAGC,0.104,-0.00899,-0.414,-0.558,0.0494,-1.1,0.172,0.0366,-0.105
GTACGAC,0.0631,0.0604,0.42,0.859,0.031,1.36,0.033,0.0794,0.105
TAGCAAC,-0.0181,-0.0249,-0.113,-1.06,-0.147,-0.376,-0.407,-0.0721,-0.112
TTAAGGG,0.15,0.0161,0.145,0.473,0.0494,0.176,0.144,-0.0242,0.0902
GCGTAGG,0.123,0.00838,0.139,0.701,-0.000939,0.542,0.0823,0.0445,-0.00302
TCGTTGC,-0.00126,-0.223,-0.801,-0.236,0.0957,-1.12,0.0568,0.0777,-0.215
GTTATCT,0.102,0.141,0.384,0.828,-0.0479,1.77,0.11,0.212,0.136
CTTAACG,-0.088,-0.00536,-0.764,-0.269,0.133,-1.13,0.216,0.0441,-0.0299
CCTATGG,-0.0474,-0.0546,-0.0988,0.0896,-0.0854,-0.656,0.0279,-0.0313,0.0138
TGGCGGC,0.0583,-0.0232,0.00779,0.114,0.00825,-0.0988,0.0634,0.0676,-0.116
AGGAGCT,0.0623,0.109,0.201,0.411,0.0096,0.332,0.113,-0.0613,-0.0049
ATATGCC,-0.0924,-0.124,-0.535,-0.659,-0.00518,-1.11,0.112,0.0106,-0.196
AGTGACC,0.085,0.0643,0.0241,0.672,-0.0746,1.11,0.0562,-0.109,-0.0583
CAGGGGT,-0.156,-0.0559,0.153,1.27,-0.119,1.61,-0.0109,-0.0773,-0.113

Sequence,uncleaved DNA left (log2) [1],uncleaved DNA left (log2) [2],uncleaved DNA left (log2) [3],uncleaved DNA left (log2) [4],uncleaved DNA left (log2) [5],uncleaved DNA left (log2) [6],uncleaved DNA left (log2) [7],uncleaved DNA left (log2) [8],uncleaved DNA left (log2) [9]
GTACTTT,-0.0636,0.122,0.332,0.718,0.0267,1.84,0.0554,0.061,0.134
TTGCGGC,0.0307,-0.117,-0.711,-0.705,-0.201,-1.22,-0.0499,-0.107,-0.178
TGTGTCC,-0.0028,-0.0632,0.257,0.431,-0.237,0.993,-0.0123,-0.0182,-0.0547
CTGTCGA,0.126,0.0532,-0.753,-0.656,0.0357,-0.942,0.111,-0.0808,-0.104
CATACGC,-0.0963,-0.00938,-0.12,-0.514,-0.00732,-0.936,0.109,-0.0262,-0.0579
GGGGGGT,-0.00128,0.191,0.832,1.74,0.0951,2.15,0.247,0.00957,0.104
CACTGTC,-0.0814,-0.0781,-0.224,0.101,-0.0492,-0.258,-0.392,-0.187,-0.0824
ACTCTGC,-0.0455,-0.11,-0.806,-0.585,0.0257,-1.23,0.123,-0.013,-0.323
CTGTTTG,0.0178,-0.122,-0.724,-0.728,-0.112,-1.02,0.0874,-0.132,-0.218
ATTGACA,0.0299,0.0254,-0.0297,0.0675,-0.00422,0.315,0.0639,0.0112,-0.026
TGCAGCA,0.0823,-0.0334,-0.294,-0.687,0.0061,-0.898,-0.358,0.0332,-0.0162
TCTAAGG,-0.0569,-0.113,0.409,1.34,-0.03,1.65,0.166,-0.23,-0.136
ACATCGT,-0.131,-0.0188,-0.827,-1.04,0.0551,-1.31,-0.0149,-0.0509,-0.134
CTATGGG,0.0438,0.0965,-0.503,-0.317,0.0478,-1.05,0.185,0.0836,-0.192
CAGATCG,-0.0302,-0.0156,-0.855,-0.169,0.0192,-1.02,0.177,-0.15,-0.0859
GGATACA,0.0936,0.0359,0.42,1.18,-0.127,1.57,0.0992,-0.0146,0.108
GTAAAGA,0.0756,0.136,0.298,0.842,0.071,0.848,0.177,0.0841,0.138
AAGCTGA,0.142,0.0165,0.532,1.91,0.157,1.85,0.345,0.0917,0.103
CGCATGG,-0.0991,0.0291,-0.158,-0.0442,0.00462,-0.598,0.0741,0.00698,0.0264
TTCGGTC,-0.0595,0.11,0.393,0.244,0.0218,0.0739,0.139,0.149,0.0154

# — the supplement of paper PMC7826260
